{
  "source": "PubChem BioAssay AID1347073",
  "about": "(National Center for Advancing Translational Sciences (NCATS), 2019)",
  "note": "About 200 (0.44%) of roughly 45,000 compounds were called active. The shares of active, inactive and inconclusive entries below differ from those in the screen. The call rests on the fitted dose curve; in most records, active means well fitted activation curve with a large enough effect; inconclusive means small, poorly fitted or top-dose-only effect; inactive means no such curve, though single readings can be large or run the other way. Potencies beside an inconclusive call are fits to weak or partial responses and may not hold up. Potency means the concentration at half of the fitted maximal effect; tags describe the fitted curve by direction and shape.",
  "data": [
    {"assay": "qHTS of TDP-43 Inhibitors: NCGC Sytravon Library Screen; further: nearly all actives have a fitted effect of over 55% in size; on growth rescue (activation): 0% is about no effect", "details": "yeast TDP-43 toxicity rescue, BacTiter-Glo growth, 24 h; growth rescue (activation): at 46.1 µM (top of the series)", "method_in_brief": "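TDP-43-expressing yeast, pregrown in raffinose, seeded at OD600 0.02 in galactose medium with compound for 24 hr at 30 deg C. Growth read by BacTiter-Glo luminescence, so rescue of toxicity appears as activation.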", "values": [
      {"smiles": "Cn1ncn2c(=O)c3c(nc12)-c1ccccc1CC31CCCC1", "Potency": "inconclusive: 14.1 µM [activator, single point]"},
      {"smiles": "CC(=O)c1cccc(NC(=O)C2Cc3c(-c4ccccc4)ccnc3O2)c1", "note": "(stereo unspecified)", "Potency": "inconclusive: 25.1 µM [activator, single point]"},
      {"smiles": "O=C(CN1CC(c2ccccc2)CC1=O)N/N=C/c1cc(Br)ccc1O", "note": "(stereo unspecified)", "Potency": "inactive"},
      {"smiles": "CCNC(=O)NC(=O)C(C)OC(=O)CCCSc1nc2ccccc2s1", "note": "(stereo unspecified)", "Potency": "inconclusive: 12.6 µM [activator, single point]"},
      {"smiles": "Cc1ccc(S(=O)(=O)N(C)CC(=O)OCC(=O)NC(=O)NC(C)C)cc1", "Potency": "inconclusive: 22.4 µM [activator, partial curve, poor fit]"},
      {"smiles": "O=C(Nc1ccccc1Cl)c1cc(C2CCCN(C(=O)c3cccs3)C2)on1", "note": "(stereo unspecified)", "growth rescue (activation)": "inconclusive: 48.6% [activator]"},
      {"smiles": "O=C(NCc1ccccc1)c1ccc2nc(N3CCOCC3)sc2c1", "Potency": "inconclusive: 15.8 µM [activator, single point]"},
      {"smiles": "O=C(Cc1ccsc1)Nc1ccc(S(=O)(=O)C(F)F)cc1", "Potency": "inconclusive: 14.1 µM [activator, partial curve, poor fit]"},
      {"smiles": "CCOc1ccc(-c2nc(N)ncc2-c2ccccc2OC)c(O)c1", "Potency": "inconclusive: 25.1 µM [activator, single point]"},
      {"smiles": "CC(C)Nc1nc(NCc2ccccc2)c2sccc2n1", "growth rescue (activation)": "inconclusive: 41.7% [activator]"},
      {"smiles": "O=S(=O)(NC1CCSc2ccccc21)c1ccccc1", "note": "(stereo unspecified)", "Potency": "inconclusive: 17.8 µM [activator, single point]"},
      {"smiles": "Cc1ccc(C)c(-c2ccc(=O)n(Cc3ccc(F)cc3Cl)n2)c1", "Potency": "inconclusive: 14.1 µM [activator, single point]"},
      {"smiles": "COc1ccc(OC)c(NC(=O)CCCSc2ccccc2)c1", "Potency": "inactive"},
      {"smiles": "Cc1cccc(NC(=O)COC(=O)[C@@H]2CCCN2C(=O)c2cccs2)c1", "Potency": "inconclusive: 35.5 µM [activator, single point]"},
      {"smiles": "O=[N+]([O-])c1cccc(OCC(O)CN2CCN(S(=O)(=O)c3cc(Cl)ccc3Cl)CC2)c1", "note": "(stereo unspecified)", "Potency": "inactive"},
      {"smiles": "O=C(CSCc1ccco1)N1CCc2ccccc21", "Potency": "inconclusive: 14.1 µM [activator, partial curve]"},
      {"smiles": "C=CCOc1ccccc1CN(C(=O)CCl)c1ccc2c(c1)OCO2", "Potency": "inconclusive: 12.6 µM [activator, partial curve, poor fit]"},
      {"smiles": "CCN1CCN(C(=O)c2ccc3c(=O)n(CCc4ccccc4)c(=O)[nH]c3c2)CC1", "Potency": "inactive"},
      {"smiles": "COc1cccc(-c2nc(N3CCCCC3)c3ccccc3n2)c1O", "Potency": "inconclusive: 7.94 µM [activator, partial curve]"},
      {"smiles": "Cc1csc(SCC(=O)NCCc2ccc(Cl)cc2)n1", "Potency": "inconclusive: 22.4 µM [activator, single point]"},
      {"smiles": "CCOc1ccc(/C=C/C(O)=C2/C(=O)N(C)C3(C)CC2c2ccccc2O3)cc1OC", "note": "(stereo unspecified)", "Potency": "inconclusive: 22.4 µM [activator, single point]"},
      {"smiles": "CCOC(=O)C1CCCN(c2ncnc3c2oc2ccccc23)C1", "note": "(stereo unspecified)", "Potency": "inconclusive: 35.5 µM [activator, single point]"},
      {"smiles": "Cc1ccc(S(=O)(=O)N2CCN(C(=O)CN3CCCSc4ccccc43)CC2)cc1", "Potency": "inconclusive: 35.5 µM [activator, single point]"},
      {"smiles": "O=C(COc1cccc(C(F)(F)F)c1)N1CCN(c2ccccc2O)CC1", "Potency": "inconclusive: 12.6 µM [activator, single point]"},
      {"smiles": "CC(C)NC(=S)NC(=O)c1ccc(Cl)cc1Cl", "Potency": "inconclusive: 10 µM [activator, partial curve]"},
      {"smiles": "Cc1cc(C)cc(OCC(=O)N2CCN(c3ncccn3)CC2)c1", "Potency": "inconclusive: 12.6 µM [activator, single point]"},
      {"smiles": "COc1cc2c(cc1OC)CN(C(=O)/C=C/c1ccc([N+](=O)[O-])cc1)CC2", "Potency": "inconclusive: 25.1 µM [activator, single point]"},
      {"smiles": "O=C(Nc1ccc([N+](=O)[O-])cc1)c1cc2ccccc2nc1Cl", "Potency": "inconclusive: 12.6 µM [activator, single point]"},
      {"smiles": "COc1ccc(C(=O)O)cc1S(=O)(=O)N(C)CCc1ccccn1", "Potency": "inconclusive: 25.1 µM [activator, single point]"},
      {"smiles": "CC(=O)c1ccc(C(=O)N2CCc3c([nH]c4ccccc34)C2c2ccccn2)s1", "note": "(stereo unspecified)", "Potency": "inconclusive: 20 µM [activator, single point]"},
      {"smiles": "Cc1cc([N+](=O)[O-])nn1CCCC(=O)Nc1cc(Cl)ccc1Cl", "Potency": "inconclusive: 15.8 µM [activator, single point]"},
      {"smiles": "Cc1cc(OCC(=O)N(Cc2sccc2C)C2CCS(=O)(=O)C2)ccc1Cl", "note": "(stereo unspecified)", "Potency": "inactive"},
      {"smiles": "CC12CC3CC(C)(C1)CC(C(=O)N1CCN(C(=O)c4ccco4)CC1)(C3)C2", "Potency": "inconclusive: 14.1 µM [activator, partial curve, poor fit]"},
      {"smiles": "CC(C)c1ccc(NC(=O)c2cc(S(=O)(=O)NCC3COc4ccccc4O3)ccc2F)cc1", "note": "(stereo unspecified)", "Potency": "inconclusive: 31.6 µM [activator, single point]"},
      {"smiles": "COC(=O)N/N=C\\c1cccc(OC(=O)c2cccs2)c1", "Potency": "inconclusive: 15.8 µM [activator, partial curve, poor fit]"},
      {"smiles": "CCOc1ccc(C(=O)Nc2cccc(NC(=O)c3ccco3)c2)cc1Cl", "Potency": "inactive"},
      {"smiles": "COc1ccc(OCC(=O)Nc2c(Cl)ccc3nsnc23)cc1", "Potency": "inconclusive: 2 µM [activator, partial curve, poor fit]"},
      {"smiles": "Cn1nc([N+](=O)[O-])nc1Sc1ccc(Cl)cc1", "Potency": "inconclusive: 20 µM [activator, partial curve, poor fit]"},
      {"smiles": "Cc1cccc(N/C=C(\\[N+](=O)[O-])S(=O)(=O)c2ccccc2)c1C", "Potency": "inconclusive: 20 µM [activator, partial curve, poor fit]"},
      {"smiles": "O=C(c1cncc(Br)c1)N1CCCc2ccccc21", "Potency": "inconclusive: 10 µM [activator, partial curve]"},
      {"smiles": "COc1cc([N+](=O)[O-])cc(/C=N/NC(=O)CSc2nnc(-c3ccccc3)n2C)c1O", "Potency": "inconclusive: 35.5 µM [activator, single point]"}
    ]}
  ]
}
